Measured values: PubChem BioAssay AID686978 (National Center for Advancing Translational Sciences (NCATS), 2013)
Screen size: about 420,000 compounds; about 64,000 (15%) were called active. Inconclusive means that the source gave no clear call. Such entries were picked first, then a sample of the others. Calls come from the whole dose curve; as a rule, active = well fitted inhibition curve with a large enough effect; inconclusive = small, poorly fitted or top-dose-only effect; inactive = flat fitted curve, though single readings scatter. No potency is given beside an inconclusive call; the fits are too rough.

Assay: qHTS for Inhibitors of human tyrosyl-DNA phosphodiesterase 1 (TDP1): qHTS in cells in absence of CPT; note: nearly all actives have a fitted effect of over 55% in size
Details: DT40 Tdp1-/- hTDP1 cells, no CPT, ATP luminescence, 48 h; activity change, negative = growth inhibition: at 46.2 µM (top of the series) unless noted
How it was run: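 Readout: luminescence from CellTiter-Glo after 30 min in the dark at RT. Cells: DT40 Tdp1-/- with stable hTDP1, 400/well. Exposure: compounds alone, ≥48 hr, 37 °C.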
% is set by controls: 0 for no effect and ±100 for the full control effect; potency is the fitted concentration of half-maximal effect; tags give direction and shape of the fitted curve.

Which Potency does the source give for `CCS(=O)(=O)N1CCc2cc(C(=O)NCc3ccccc3OC)ccc21` here?
Its Potency is inconclusive [inhibitor, partial curve].

For `CCOc1ccc(CCNC(=O)C2CCCN(S(=O)(=O)N(C)c3ccc(F)cc3)C2)cc1` (stereo not drawn), which Potency is on record?
Its Potency is active: 20.6 µM.

For `CCCCOC(=O)c1ccc(NC(=O)C(=O)NCCN(CC)CC)cc1`, which Potency is on record?
The Potency was inconclusive [inhibitor, single point].

For `Cc1cc(C)c2cc(CN(CC3CCCO3)C(=S)NCc3ccco3)c(=O)[nH]c2c1` (stereo not drawn), which Potency is on record?
Its Potency is inconclusive [inhibitor, single point].

Which Potency does the source give for `CCC1NC(=O)c2cc3ccccc3cc2-n2c1nc1ccc(OC)cc1c2=O` (stereo not drawn) here?
The Potency was inconclusive [inhibitor, single point].

With `COC(=O)C1=CN(Cc2ccccc2)C=C(C(=O)OC)C1c1ccc(OC)c(OC)c1` as the compound, how does the Potency read?
The Potency was inconclusive [inhibitor, single point].

For `O=C(CN1CCOCCOCCOCC1)Nc1ccccc1`, which Potency is on record?
Its Potency is “inactive”.

With `O=C(COC(=O)Cc1ccc(F)cc1)NC1CCCCC1` as the compound, how does the Potency read?
Its Potency is “inactive”.

For `Cc1ccc(C)c(NC(=O)Cn2cc(C(=O)C3CC3)c3ccccc32)c1`, which activity change, negative = growth inhibition is on record?
The activity change, negative = growth inhibition was inconclusive: -30.1% [inhibitor].

Which Potency does the source give for `COc1ccc(CCN(C)C(=O)c2cc(-c3ccc(C)cc3)nc3ccccc23)cc1OC` here?
The Potency was inconclusive [inhibitor, partial curve, poor fit].

For `COc1cccc(NC(=O)C2CCC(CNS(=O)(=O)c3ccc4c(c3)CCCC(=O)N4)CC2)c1` (stereo not drawn), which Potency is on record?
The Potency was active: 14.6 µM.

Which Potency does the source give for `Cc1ccc2[nH]cc(CCNC(=O)C3CCCCC3)c2c1` here?
The Potency was inconclusive [inhibitor, partial curve, poor fit].

For `CCn1cc(CNC(=O)c2cc(-c3ccc(C)cc3)nc3ccc(Br)cc23)c(C)n1`, which Potency is on record?
Its Potency is active: 13 µM.

For `O=C1C=C(c2ccc(Cl)c(C(F)(F)F)c2)C[C@@H](c2ccc3c(c2)OCO3)C1`, which Potency is on record?
Its Potency is inconclusive [inhibitor, single point].

With `Cc1ccccc1-c1nc2scc(CCNC(=O)c3ccco3)n2n1` as the compound, how does the Potency read?
The Potency was inconclusive [inhibitor, single point].

Which Potency does the source give for `CCCCC(=O)N(C)c1c(CC)nc2c(OCc3cccc(Cl)c3)cccn12` here?
The Potency was active: 23.1 µM.

With `O=C(Nc1ccc(F)cc1)C(c1cccc(F)c1)N1CCN(c2cccc(C(F)(F)F)n2)CC1` (stereo not drawn) as the compound, how does the Potency read?
Its Potency is inconclusive [inhibitor, single point].

Which Potency does the source give for `Cc1ccc(C(=O)NNC(=O)CSc2nnc(-c3ccncc3)n2C)cc1` here?
Its Potency is “inactive”.

Which Potency does the source give for `Cc1cc(=O)oc2cc(NC(=O)CCOc3ccccc3)ccc12` here?
The Potency was “inactive”.

Which Potency does the source give for `C/C=C/c1ccc(OCCCCN(C)Cc2ccccc2)c(OC)c1` here?
Its Potency is inconclusive [inhibitor, single point].

For `Cc1ccccc1C(=O)N1CCN(c2ccc(NC(=O)c3ccco3)cc2)CC1`, which Potency is on record?
Its Potency is inconclusive [inhibitor, single point].

Which Potency does the source give for `CCCNC(=S)N1CCCC(c2nc3ccccc3[nH]2)C1` (stereo not drawn) here?
The Potency was inconclusive [inhibitor, single point].

With `CC(C)c1ccc(/C=N/NC(=O)CCNC(=O)c2ccccc2)cc1` as the compound, how does the Potency read?
The Potency was inconclusive [inhibitor, single point].

Which Potency does the source give for `CCCCN(C(=O)C1CC(=O)N(CCc2ccc(OC)c(OC)c2)C1)c1c(N)n(CCCC)c(=O)[nH]c1=O` (stereo not drawn) here?
The Potency was “inactive”.

Which Potency does the source give for `CN(C(=O)COn1nnc2ccc(S(=O)(=O)N3CCOCC3)cc21)c1ccccc1` here?
The Potency was inconclusive [inhibitor, single point].

Which Potency does the source give for `COc1ccc(F)cc1S(=O)(=O)n1cc(C)nc1-c1ccccc1` here?
The Potency was inconclusive [inhibitor, single point].

Which Potency does the source give for `Cc1ccc(-c2nnc(SCC(=O)N/N=C/c3ccc(C(=O)O)cc3)n2C2CCCCC2)cc1` here?
The Potency was “inactive”.

Which Potency does the source give for `COc1cccc(C(=O)N2C(C(C)C)COc3cc(Br)ccc3S2(=O)=O)c1` (stereo not drawn) here?
Its Potency is active: 23.1 µM.

Which Potency does the source give for `O=C(CSc1nc(=O)n(Cc2ccco2)c2c1CCC2)NCc1ccccc1` here?
The Potency was “inactive”.

Which Potency does the source give for `Cc1nc2ccc(NS(=O)(=O)c3ccccc3Cl)cc2s1` here?
The Potency was inconclusive [inhibitor, single point].

Which Potency does the source give for `COc1cccc(NCc2nnc(SC(C(=O)N(C)C)c3ccccc3)n2C2CCCCC2)c1` (stereo not drawn) here?
Its Potency is “inactive”.

With `CC(=O)N1CCN(CCS(=O)(=O)c2ccc(Br)cc2)CC1` as the compound, how does the Potency read?
Its Potency is “inactive”.

Which Potency does the source give for `N#Cc1c(C(F)(F)F)cc(=O)n2c1[nH]c1ccccc12` here?
Its Potency is active: 14.6 µM.

Which Potency does the source give for `CCOCCCNC(=O)CSc1nnc(-c2ccc(S(=O)(=O)N3CCCC3)cc2)n1C` here?
Its Potency is “inactive”.

Which Potency does the source give for `COc1cccc(C(=O)Nc2ccc3c(c2)OC[C@H](C)N(C(=O)C2CCCC2)C[C@@H](C)[C@@H](OC)CN(C)C3=O)c1` here?
Its Potency is inconclusive [inhibitor, single point].

With `CC(C)Oc1ccc(S(=O)(=O)N2CCCCC2)cc1NC(=O)C1=COCCO1` as the compound, how does the Potency read?
Its Potency is inconclusive [inhibitor, single point].

With `Cc1sc2ncn(CC(=O)N3CCN(c4ccccc4F)CC3)c(=O)c2c1S(=O)(=O)N1CCC(C)CC1` as the compound, how does the Potency read?
Its Potency is inconclusive [inhibitor, single point].

With `CCOC(=O)Cn1c(=O)oc2cc(S(=O)(=O)NC3CCCCC3)ccc21` as the compound, how does the Potency read?
The Potency was inconclusive [inhibitor, single point].

For `Cc1cc2nc(SCC(=O)N(C)C)c3c(c2cc1C)CCCC3`, which activity change, negative = growth inhibition is on record?
The activity change, negative = growth inhibition was inconclusive: -30.8% [inhibitor].

With `O=C(Nc1ccccc1C(=O)Nc1cccnc1)c1ccccc1` as the compound, how does the Potency read?
Its Potency is inconclusive [inhibitor, single point].

For `Cc1ccc2nc(/C(C#N)=C/c3ccccc3F)[nH]c2c1`, which Potency is on record?
Its Potency is active: 18.4 µM.

For `Cc1cccc(OCCSc2nnc(-c3cccs3)o2)c1`, which Potency is on record?
Its Potency is inconclusive [inhibitor, single point].

For `CC(/C=C/c1ccccc1)=N/NC(=O)CNC(=O)c1ccc2c(c1)OCO2`, which Potency is on record?
Its Potency is inconclusive [inhibitor, single point].

For `CCCn1c(N)cc(=O)n(C)c1=O`, which Potency is on record?
The Potency was “inactive”.

Which Potency does the source give for `Cc1cc(NC(=O)CN2C(=O)/C(=C/c3ccc(C(C)C)cc3)SC2=S)no1` here?
Its Potency is inconclusive [inhibitor, single point].

Which Potency does the source give for `COCCn1c(N)c(C#N)c2nc3ccccc3nc21` here?
The Potency was “inactive”.

With `CC(=O)NCCNc1nc(-c2cccc(C#N)c2)nc2ccccc12` as the compound, how does the Potency read?
The Potency was inconclusive [inhibitor, single point].

For `CCCCOc1ccc(C(=O)NCC(=O)OCC(=O)c2c(N)n(C)c(=O)n(C)c2=O)cc1`, which Potency is on record?
Its Potency is “inactive”.

For `O=C(NC1CCCC1)c1ccc2c(=O)n(Cc3ccccc3)c(SCc3ccccc3F)nc2c1`, which Potency is on record?
Its Potency is inconclusive [inhibitor, single point].

For `Cc1sc2nc(CSc3nnc(Cc4cccs4)n3C3CCCCC3)[nH]c(=O)c2c1C`, which activity change, negative = growth inhibition is on record?
Its activity change, negative = growth inhibition is inconclusive: -35% [inhibitor].

With `O=C(O)c1c(-n2cccc2)sc2c1CCCC2` as the compound, how does the Potency read?
Its Potency is “inactive”.

With `CCOc1ccc(NC(=O)c2ccc(NS(=O)(=O)c3cccs3)cc2)cc1` as the compound, how does the Potency read?
The Potency was inconclusive [inhibitor, partial curve].

With `Cc1ccc([N+](=O)[O-])cc1CN1CCN(c2ncc(Cc3ccccc3)cn2)CC1` as the compound, how does the Potency read?
Its Potency is inconclusive [inhibitor, single point].

With `O=C(COc1ccccc1)NCC(c1ccco1)N1CCCCC1` (stereo not drawn) as the compound, how does the Potency read?
The Potency was inconclusive [inhibitor, single point].

Which Potency does the source give for `Cc1ccc(-c2csc(/C=C3\SC(C)C(=O)N3CC(=O)Nc3ccccc3F)n2)cc1` (stereo not drawn) here?
Its Potency is inconclusive [inhibitor, single point].

With `COc1ccc(Cl)cc1-n1cc(-c2ccccc2)nc1SCC(=O)Nc1ccc(C)cc1` as the compound, how does the Potency read?
Its Potency is active: 18.4 µM.

With `Cc1cccc(NC(=S)N2CCCC2)c1` as the compound, how does the Potency read?
The Potency was “inactive”.

With `COc1cc(N)c2ncsc2c1` as the compound, how does the Potency read?
The Potency was “inactive”.

Which Potency does the source give for `CO[C@H]1[C@H](NC(=O)c2ccsc2)c2ccccc2C12CCN(Cc1ccc3c(c1)OCO3)CC2` here?
Its Potency is inconclusive [inhibitor, single point].

Which Potency does the source give for `Cc1cc(-c2nnc(-c3cccc(C(F)(F)F)c3)o2)no1` here?
Its Potency is “inactive”.

With `CCCNC(=O)Nc1cc(OC)c(OC)cc1Cc1nccc2cc(OC)c(OC)cc12` as the compound, how does the Potency read?
The Potency was “inactive”.

Which Potency does the source give for `CCOC(=O)c1c(NC(=O)c2ccc(C)cc2)sc2c1CC(C)(C)OC2` here?
Its Potency is active: 18.4 µM.

Which Potency does the source give for `O=C(COC(=O)CSc1ccc([N+](=O)[O-])cc1)NCc1cccs1` here?
The Potency was “inactive”.

For `COc1ccccc1CNC(=O)C1CCN(c2nc3ccc(C)cc3[nH]2)CC1`, which Potency is on record?
The Potency was inconclusive [inhibitor, single point].

With `CCn1ncc(Br)c1C(=O)Nc1ccn(C23CC4CC(CC(C4)C2)C3)n1` as the compound, how does the Potency read?
Its Potency is active: 13 µM.

Which Potency does the source give for `Cc1ccc(Oc2nnc(-c3cccs3)c3ccccc23)cc1C` here?
The Potency was inconclusive [inhibitor, single point].

With `O=C1NC(=Nc2ccccc2Cl)S/C1=C\c1cccc([N+](=O)[O-])c1` as the compound, how does the Potency read?
The Potency was inconclusive [inhibitor, partial curve].

Which Potency does the source give for `COC1=C/C(=C/c2c(N)n3nc(CC(=O)N4CCOCC4)sc3nc2=O)C=CC1=O` here?
The Potency was “inactive”.

For `S=C(NCCN1CCOCC1)NC1CCCCC1`, which Potency is on record?
The Potency was “inactive”.

For `CCN(C(=O)COC(=O)CCS(=O)(=O)c1ccccc1)c1c(N)n(Cc2ccccc2)c(=O)[nH]c1=O`, which Potency is on record?
Its Potency is “inactive”.

Which Potency does the source give for `CCOC(=O)C(CC(=O)O)=C(c1ccccc1)c1ccccc1` here?
The Potency was “inactive”.

With `CCCCc1cc(=O)oc2cc(C)cc(O)c12` as the compound, how does the Potency read?
Its Potency is inconclusive [inhibitor, single point].

With `O=C(N1CCN(c2ccccc2F)CC1)C12CC3CC(CC(C3)C1)C2` as the compound, how does the Potency read?
The Potency was inconclusive [inhibitor, partial curve].
